# Measurements published in paper PMC6919601, “Identification of Plasmodium dipeptidyl aminopeptidase allosteric inhibitors by high throughput screening” (PLoS ONE, 2019).
# The whole screen tested about 110,000 compounds, of which about 230 (0.21%) showed an effect of 50% or more. Some of the results follow.
# Target: DPAP1 (Plasmodium falciparum, UniProt Q8IIJ9)
# Assay: primary screen, percent inhibition; read by cleavage of a fluorogenic dipeptide substrate; higher = more effect of the substance
# Set-up: species or system P. falciparum D10 trophozoite lysates; single well
# 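Note: 30 min substrate incubation versus DMSO and 10 µM JCP410 controls.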
# Sequence of DPAP1 (Q8IIJ9 whole entry, looked up): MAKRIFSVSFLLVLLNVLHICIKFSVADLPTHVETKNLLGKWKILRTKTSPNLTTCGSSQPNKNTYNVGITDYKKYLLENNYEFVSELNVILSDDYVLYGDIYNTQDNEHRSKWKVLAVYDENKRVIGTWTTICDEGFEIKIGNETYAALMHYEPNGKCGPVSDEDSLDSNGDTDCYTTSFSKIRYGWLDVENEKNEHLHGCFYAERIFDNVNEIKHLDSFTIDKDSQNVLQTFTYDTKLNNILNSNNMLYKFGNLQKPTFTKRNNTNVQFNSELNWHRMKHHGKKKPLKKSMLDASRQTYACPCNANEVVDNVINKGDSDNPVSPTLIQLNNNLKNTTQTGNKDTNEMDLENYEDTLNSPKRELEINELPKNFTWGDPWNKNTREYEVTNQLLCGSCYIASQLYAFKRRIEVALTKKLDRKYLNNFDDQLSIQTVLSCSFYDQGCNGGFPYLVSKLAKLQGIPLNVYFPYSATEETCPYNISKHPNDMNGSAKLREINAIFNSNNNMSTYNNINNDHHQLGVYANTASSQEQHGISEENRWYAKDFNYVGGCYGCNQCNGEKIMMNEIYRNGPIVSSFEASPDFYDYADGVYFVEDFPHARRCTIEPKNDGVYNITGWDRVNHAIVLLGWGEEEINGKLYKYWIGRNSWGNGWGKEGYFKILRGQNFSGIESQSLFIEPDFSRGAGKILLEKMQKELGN
row,SMILES,% Inhibition @ 10 uM [%]
1,Cn1c(=O)c2c(nc3n(Cc4ccccc4)c(-c4cccs4)cn23)n(C)c1=O,-2.77
2,O=C(O)c1cccc(C(=O)O)c1N(c1ccccc1)c1ccccc1,4.74
3,Nc1c(C(=O)Nc2nccs2)sc2nc3c(c(-c4ccccc4Cl)c12)CCCC3,-0.458
4,CC(C)N1C(=O)/C(=C\c2ccncc2)S/C1=N/c1ccccc1,-2.09
5,COc1cc(S(=O)(=O)NCC2COCCO2)ccc1-n1cnnn1 (stereo not drawn),-2.84
6,COc1ccc(NS(=O)(=O)c2ccc(NC(=S)NC(=O)/C=C/c3ccco3)cc2)nn1,-8.3
7,CC(C)CCNC(=O)CCc1nc2cccnc2n1-c1ccccc1,-8.68
8,Cc1cc(C)c(C)c(OCC(=O)NC2CCCC2)c1,2.43
9,C/N=c1\c(NS(=O)(=O)c2ccc3c(c2)CCCC3)c(O)oc2ccccc12,-2.78
10,Cc1nn(-c2ccccc2)c(-n2cccc2)c1C(=O)NCc1ccc2c(c1)OCO2,6.27
11,Cc1nc2cccnc2n1-c1ccc(CC(=O)N2CCN(c3ccccn3)CC2)cc1,-0.943
12,CC(C)(C)N(CCNS(=O)(=O)c1ccc(-c2cc(C(F)(F)F)no2)s1)Cc1ccco1,-3.79
13,CC(C)(C)c1ccc(C(=O)NC2CCS(=O)(=O)C2)cc1 (stereo not drawn),0.214
14,COc1ccc(CNC(=O)CN(C)S(=O)(=O)c2c(C)cc(C)cc2C)cc1,0.83
15,Cc1ccccc1Cn1c(SCc2ccc(C(=O)NCc3ccccn3)cc2)nc2ccncc21,-0.23
16,Fc1ccc2c(c1)c1nnc(S)nc1n2Cc1ccccc1,3.73
17,O=C(NCCC1=CCCCC1)c1cccc2c1C(=O)N(C1CCCCC1)C2,2.39
18,COc1ccccc1NC(=O)C1=C(C)N=C2CCCC(O)=C2C1c1cccc(Cl)c1Cl (stereo not drawn),-1.21
19,Cn1c(=O)c2c(nc(S)n2Cc2cc3c(cc2Cl)OCO3)n(C)c1=O,3.79
20,O=C(O)C1C2C=CC3(CN(Cc4ccccc4)C(=O)C13)O2 (stereo not drawn),-7.61
21,COc1ccccc1CNC(=O)CSc1nc2nncc-2c(O)n1-c1cccc(C(F)(F)F)c1,1.91
22,COc1cccc(-c2nc(CS(=O)(=O)CC(=O)N(C)CCC#N)c(C)o2)c1,-0.138
23,Cc1cccnc1NC(=O)C(NS(=O)(=O)c1cccc2nsnc12)C(C)C (stereo not drawn),1.05
24,CCCOc1ccc(C(=O)Nc2ccc(CN3CCOCC3)cc2)cc1,-4.12
25,CCCCNC(=O)Nc1ccc(OC)cc1C,-0.487

row,SMILES,% Inhibition @ 10 uM [%]
1,CCCNC(=O)c1cnn(-c2ccccc2)c1-n1cccc1,1.8
2,COc1cccc(C2NC(=O)NC(C)=C2C(=O)OCC2CCCCC2)c1 (stereo not drawn),11.8
3,CC1CCc2nn(CC(=O)NCc3ccccn3)cc2C1 (stereo not drawn),3.4
4,CC1CN(c2nc3ccccc3nc2SCC(=O)N2CCC3(CC2)OCCO3)CC(C)O1 (stereo not drawn),1.72
5,COc1ccc(C(=O)N2CCN(Cc3cccc(C)c3)CC2)cc1OC,0.964
6,O=S(=O)(c1ccc(Cl)cc1)C1(S(=O)(=O)c2ccc(Cl)cc2)CCCC1,-8.51
7,Cc1nc2cccnc2n1-c1ccc(CC(=O)NCc2ccccc2Cl)cc1,2.32
8,COc1cc(Br)ccc1C1/C(=C(\O)OC2CCCCC2)C(C)=Nc2nnnn21 (stereo not drawn),6.66
9,COC(=O)c1cc(S(=O)(=O)NCc2ccccc2Cl)c[nH]1,-2.57
10,c1ccc2c3c([nH]c2c1)CN(Cc1ccc2c(c1)OCO2)CC3,-1.93
11,O=C(Nc1ccc2c(c1)OCO2)c1nn2c(C(F)(F)F)cc(-c3ccccc3)nc2c1Cl,-3.37
12,Nc1nonc1-c1noc(-c2cccc(COc3ccc(Cl)cc3Cl)c2)n1,4.88
13,O=[N+]([O-])c1ccc(S(=O)(=O)N2CCCc3ccccc32)cc1,0.78
14,COCCNC(=O)c1cc(-c2ccccc2O)no1,-6.05
15,Cc1cc(CN2C(=O)c3ccccc3C2=O)cc(C)n1,-0.902
16,O=C(c1ccc2c(c1)OCO2)N1CCN(c2cccc(Cl)c2)CC1,-1.85
17,O=C(C1CCN(S(=O)(=O)N2CCC3(CC2)OCCO3)CC1)N1CCOCC1,-2.99
18,Cc1cc(-c2ccc(Cl)cc2)n2nc(N)nc2n1,3.36
19,Cc1ccc(Cn2c(C(=O)O)c(CNCc3ccco3)c3ccc(C)cc32)cc1,4.67
20,CC(C)C[C@H](NC(=O)c1ccc(-c2cccnc2)cc1)C(=O)NCC#N,-0.778
21,Cc1cc2ccccc2c(=O)n1CC(=O)N1CCN(c2ccccn2)CC1,-1.51
22,CNCCc1c[nH]c2ccc(OCc3ccccc3)cc12,3.47
23,Cc1csc(NC(=O)Cn2cnc3c2c(=O)n(C)c(=O)n3C)n1,0.408
24,CC(=O)n1cc(/C=C(\C)[N+](=O)[O-])c2ccccc21,1.7
25,CC/N=C1\SC(CC(=O)Nc2ccccc2F)C(=O)N1CC (stereo not drawn),-0.641

row,SMILES,% Inhibition @ 10 uM [%]
1,Cc1cc(C)c2c(cnn2CC(=O)N2CCc3ccccc3C2)c1,-4.71
2,Cc1ccc(N2C(=O)CC(N3CCN(C4CC(=O)N(c5ccc(C)cc5)C4=O)CC3)C2=O)cc1 (stereo not drawn),-7
3,c1ccc2c(c1)CCC(NCCc1c[nH]cn1)C2 (stereo not drawn),3.48
4,CCOCC(O)CSc1nc(C)cc(C)n1 (stereo not drawn),1.04
5,CCOc1ccccc1Cn1cccc1C=O,2.9
6,O=C(Nc1ccc(Cl)cc1C(=O)NCC1CCCO1)c1ccco1 (stereo not drawn),0.52
7,Cc1ccc(S(=O)(=O)N(CC(=O)NCc2ccccc2)c2ccc(Cl)cc2)cc1,-0.796
8,CC1=C(C(=O)Nc2cccc(C)n2)C(c2ccccc2)C2=C(O)CC(C)(C)CC2=N1 (stereo not drawn),-2.56
9,COc1cc(OC)cc(C(=O)N2CCN(C(c3ccccc3)c3ccccc3)CC2)c1,6.3
10,CCCc1[nH]nc2c1C(c1cc(OC)c(OC)cc1OC)C(C#N)=C(N)O2 (stereo not drawn),-0.99
11,CC(=O)/N=C1\SC2CS(=O)(=O)CC2N1Cc1ccccc1 (stereo not drawn),3.81
12,COc1ccc(S(=O)(=O)n2nc(-c3ccccc3OC)cc2N)cc1OC,-5.76
13,COc1ccc(C(=O)NCC(=O)NCC(=O)O)cc1,-2.98
14,COc1cc(/C=C2/C(=O)ON=C2C)ccc1OCc1ccc(C)cc1,4.54
15,COc1ccccc1N1CCN(S(=O)(=O)c2ccccc2C(F)(F)F)CC1,-4.82
16,O=C1c2cccc3c(Cl)ccc(c23)C(=O)N1Cc1ccncc1,-0.63
17,CC(C)CN1C(=O)C(NC(=O)CCc2ccccc2)(C(F)(F)F)C2=C1CC(C)(C)CC2=O (stereo not drawn),-1.52
18,CCn1c2ccc(OC)cc2c2nnc(S)nc21,79.3
19,COc1cccc(C2c3cc(OC)c(OC)c(OC)c3CCN2C(=O)C(F)(F)F)c1 (stereo not drawn),-7.32
20,Cc1ccccc1OCCc1c(C)nc(S)nc1O,2.57
21,O=C(Nc1ccc(Br)cc1)c1cccc(S(=O)(=O)Nc2ccc(Br)cc2)c1,4.82
22,CCOC(=O)/C=C(\C)N1N=C(c2ccccc2)CC1/C=C/c1ccccc1 (stereo not drawn),3.98
23,CN1C(=O)c2ccccc2C(C(=O)NCCC2=CCCCC2)C1c1c[nH]c2ccccc12 (stereo not drawn),1.81
24,CCOc1ccc(-n2c(C)nc3cc(C(=O)NCc4ccc5c(c4)OCO5)ccc32)cc1,5.85
25,COc1ccc(CNCCc2ccccc2)cc1OC,0.909

row,SMILES,% Inhibition @ 10 uM [%]
1,CCCN1C/C(=C/c2ccc3c(c2)OCO3)C(=O)/C(=C/c2ccc3c(c2)OCO3)C1,22.7
2,CC1(C)CC(CCN)(c2ccc(F)cc2)CCO1 (stereo not drawn),-2.55
3,CC1=C/C(=N\OC(=O)c2cccc(Cl)c2)C=CC1=O,6.51
4,CC(C)CCNC(=O)COc1ccccc1,-5.34
5,Cc1ccc(S(=O)(=O)Nc2cccc(C(=O)N3CCOCC3)c2)cc1,-1.17
6,Cn1c(=O)c2c(nc3n(CCO)c(-c4ccc(Br)cc4)cn23)n(C)c1=O,-3.63
7,Cc1ccc(CNC(=O)C2CCN(c3nnc(C)c4c(C)n(-c5ccccc5)nc34)CC2)o1,11
8,CCOc1ccccc1CNS(=O)(=O)c1c[nH]cn1,-8.06
9,Cc1cc(C)nc(Nc2nc(N)c3ccccc3n2)n1,-21.8
10,CC(=O)N/C(=C\c1ccccc1)C(=O)Nc1cc(C)cc(C)c1,-9.87
11,O=C(Nc1c(C(=O)N2CCCCC2)cnn1-c1ccccc1)c1ccc(Br)cc1,-7.62
12,O=C1N=C(N2CCN(C3=NC(=O)/C(=C\c4cccc(O)c4)S3)CC2)S/C1=C\c1cccc(O)c1,6
13,CC(C)(C)C1CCC(NCCCN2CCOCC2)CC1 (stereo not drawn),-3.74
14,COc1ccc(-c2[nH]nc(C)c2-c2ccccc2)c(O)c1,13.3
15,Cn1c2ccccc2c2nc3ccc([N+](=O)[O-])cc3cc21,1.24
16,CCCc1c(C)c2ccc(OCc3ccc(F)cc3)cc2oc1=O,-0.436
17,Cc1occc1-c1nnc(-c2ccc([N+](=O)[O-])cc2)o1,-1.99
18,COc1ccc(-c2onc(C)c2C)cc1S(=O)(=O)NCc1ccccn1,-4.32
19,CC(C)CNc1nc2c(c(=O)n(Cc3ccc(Cl)cc3Cl)c(=O)n2C)n1C,-1.47
20,Cc1ccc(Cc2nnc(C(=O)NCCC3=CCCCC3)o2)cc1,2
21,COc1ccc(/C=C2\CCc3ccc(OC)cc3C2=O)cc1,-0.736
22,COc1ccc(Br)cc1CNC(=O)c1ccc2[nH]c(C)c(C)c2c1,-2.28
23,CC(=O)Nc1nc(C)c(-c2csc(Nc3ccc(S(N)(=O)=O)cc3)n2)s1,-4.89
24,Cc1nc(N2CCc3ccccc3C2)nc(O)c1CCC(C)C,5.3
